The whole screen tested about 310,000 compounds, of which about 2,200 (0.71%) showed an effect of 50% or more. Effects have a minus sign here. The list shows a part of the results.
Molecular target: human ether-à-go-go-related gene (hERG) potassium channel (human, UniProt Q12809)
Experiment: primary screen, population patch clamp on CHO cells stably expressing hERG

Chain of human ether-à-go-go-related gene (hERG) potassium channel (Q12809 whole entry, looked up): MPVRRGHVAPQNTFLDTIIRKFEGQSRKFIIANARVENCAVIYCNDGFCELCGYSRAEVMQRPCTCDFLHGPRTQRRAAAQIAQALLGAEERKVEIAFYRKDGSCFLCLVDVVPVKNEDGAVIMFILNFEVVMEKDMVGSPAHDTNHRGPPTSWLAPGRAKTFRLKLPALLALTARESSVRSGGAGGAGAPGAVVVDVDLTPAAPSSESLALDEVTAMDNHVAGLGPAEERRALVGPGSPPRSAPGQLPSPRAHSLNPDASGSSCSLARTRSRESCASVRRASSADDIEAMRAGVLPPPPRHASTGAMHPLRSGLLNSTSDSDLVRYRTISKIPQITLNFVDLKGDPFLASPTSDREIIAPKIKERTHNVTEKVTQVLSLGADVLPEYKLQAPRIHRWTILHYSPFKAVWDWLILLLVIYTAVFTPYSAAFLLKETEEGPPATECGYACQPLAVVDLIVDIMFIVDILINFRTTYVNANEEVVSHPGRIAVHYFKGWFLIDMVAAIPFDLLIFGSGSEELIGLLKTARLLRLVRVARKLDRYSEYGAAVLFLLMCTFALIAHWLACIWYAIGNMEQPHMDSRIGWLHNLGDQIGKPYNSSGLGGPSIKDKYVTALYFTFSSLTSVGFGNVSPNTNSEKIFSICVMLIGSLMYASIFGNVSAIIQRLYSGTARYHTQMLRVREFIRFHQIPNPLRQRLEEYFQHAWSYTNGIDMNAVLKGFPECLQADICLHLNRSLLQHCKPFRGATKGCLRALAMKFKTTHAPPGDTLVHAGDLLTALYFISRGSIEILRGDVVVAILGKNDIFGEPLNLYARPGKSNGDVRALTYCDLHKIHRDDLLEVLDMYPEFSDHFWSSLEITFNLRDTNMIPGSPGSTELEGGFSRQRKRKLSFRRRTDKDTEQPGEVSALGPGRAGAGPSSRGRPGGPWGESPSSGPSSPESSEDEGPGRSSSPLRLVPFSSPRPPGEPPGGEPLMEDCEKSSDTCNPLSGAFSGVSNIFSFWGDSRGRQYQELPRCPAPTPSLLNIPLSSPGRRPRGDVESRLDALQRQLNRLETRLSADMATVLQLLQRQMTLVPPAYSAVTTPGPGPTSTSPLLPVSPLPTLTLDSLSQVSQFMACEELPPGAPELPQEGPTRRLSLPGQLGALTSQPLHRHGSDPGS

SMILES | hERG current change (%, negative = inhibition) at 1uM [%]
CCn1c(SCC(=O)c2ccc3c(c2)OCCO3)nnc1C(C)C | 7.74
O=C(CCc1nc(-c2ccc(Cl)cc2)no1)OCc1ccc(Br)cc1 | 5.61
CCOc1ccc2[nH]c(=O)c(CN(CCO)C(=O)c3ccc(OC)c(OC)c3)cc2c1 | 4.92
O=C(NCc1cccc(Cl)c1)c1ccc(-c2csnn2)cc1 | 4.65
COC(=O)Cc1ccc(NC(=S)NCc2ccc(S(N)(=O)=O)cc2)cc1 | 10.7
CCCCNS(=O)(=O)c1ccc(NC(=O)C(Sc2ccccc2)c2ccccc2)cc1 (stereo not drawn) | 14.2
CC(NC(=O)c1ccccc1N)c1ccccc1 (stereo not drawn) | 10.5
O=C(CNc1cccc(C(F)(F)F)c1)N/N=C/c1ccccc1C(=O)O | 8.48
O=C(NC1CCCC1)C(c1ccc(F)cc1)N(C(=O)c1csnn1)c1ccccc1 (stereo not drawn) | 2.71
CCn1cc(C(=O)N2CCN(c3ccc(OC)cc3)CC2)c(=O)c2cc(S(=O)(=O)N3CCCCC3)ccc21 | 20.1
COc1ccc(OCCOc2ccc(N(C)S(=O)(=O)c3ccccc3)cc2)cc1 | 0.211
Fc1ccc(NC(=S)NCCc2ccc(Cl)cc2)cc1 | 14
Cc1ccc([N+](=O)[O-])cc1NC(=O)CCSc1ccc(Cl)cc1 | 9.53
O=C(NCc1ccccn1)c1ccc(CNS(=O)(=O)c2cccc(C(F)(F)F)c2)cc1 | -2.52
CCN(CC)CCCNC(=O)CSc1c2c(nc3cc(Cl)ccc13)CCCC2 | -29.8
Cc1nc(N)sc1-c1csc(Nc2ccccc2)n1 | 11.7
COc1ccc(NC(=O)C2CCN(S(=O)(=O)c3ccc(Br)s3)CC2)cc1OC | 4.9
CCC(=O)N(Cc1cc2cccc(C)c2[nH]c1=O)c1ccccc1OC | 2.67
COc1ccccc1C1CN(c2ccc(F)cc2F)N=C1c1cccs1 (stereo not drawn) | 0.748
COCCCn1nnnc1SCC(=O)N1CCN(C(=O)c2ccco2)CC1 | 4.75
Cn1cccc2[nH]c(=O)nc1-2 | 14.2
COC(=O)c1cc(NC(=O)c2nn(C)c(=O)c3ccccc23)cc(C(=O)OC)c1 | 10.8
N#C/C(=C\c1ccccc1[N+](=O)[O-])c1nc(C2CC2)cs1 | 14.9

SMILES | hERG current change (%, negative = inhibition) at 1uM [%]
COc1ccc(CNC(=O)COc2ccc(S(=O)(=O)N3CCCCC3)cc2Cl)cc1 | 11.9
O=C(COc1coc(CN2CCN(c3ccccc3F)CC2)cc1=O)NCC1CCCO1 (stereo not drawn) | -6.09
S=C(NCc1ccncc1)Nc1cc(Cl)cc(Cl)c1 | -13.7
O=C(c1ccccc1)N1CCCOC1c1ccccc1 (stereo not drawn) | -4.61
O=S1(=O)NC2CCCCCN2c2ccc(F)cc21 (stereo not drawn) | -7
O=[N+]([O-])c1ccc(NC(=S)N2CCc3ccccc3C2)cc1 | 8.39
COc1ccc(C(=O)CNc2ccc(C)cc2C)cc1 | 15.4
CC(C)CC(=O)N1CCN(C(=O)c2cccc(F)c2)CC1 | 4.6
COc1cc(O)c(C(CC(=O)N2CCCC2)c2ccc(N(C)C)cc2)c(OC)c1 (stereo not drawn) | 21
CC1=NN(c2ccccc2)C(=O)C1=C(C)C | 14.5
COc1ccc(-c2nc(CS(=O)CC(=O)NCc3ccc(F)cc3)c(C)o2)cc1 (stereo not drawn) | 12.5
COc1cc(NS(=O)(=O)c2ccc(NC(=S)NC(=O)c3cccs3)cc2)nc(OC)n1 | 1.28
CCOC(=O)C1(CC2CCCCO2)CCN(Cc2nc(-c3cccs3)oc2C)CC1 (stereo not drawn) | -45.5
CCOC(=O)C1CCCN(S(=O)(=O)Cc2ccccc2Cl)C1 (stereo not drawn) | 9.11
COc1ccccc1/C=N/NC(=O)CC(=O)NC1CCCCC1 | 11.2
CN1C(=O)C(=Cc2ccc(N3CCCCC3)o2)C(=O)N(C)C1=S | 7.51
Cc1ccccc1NC(=O)CSc1nnc(CNC(=O)c2ccc3c(c2)OCO3)n1C | 12.7
CC(C)CN(C(=O)CN1CCCCCC1)c1c(N)n(CC(C)C)c(=O)[nH]c1=O | 16.7
CC(C)N1C(=S)SC(C)(C)C1NO (stereo not drawn) | 7.95
CC(=O)c1c(C)oc2ccc(NS(=O)(=O)c3ccc(O)c(C(=O)O)c3)cc12 | 13
Cc1nc2sc3c(c2c(=O)n1NC(=O)CCl)CCCC3 | 15.3
CCOc1c2ccc(C(=O)NCc3ccccc3OC)cc2nn1CC | 14.8

Source: article PMC4336329 (PLoS ONE, 2015)
